Laboratory results reported in PubChem BioAssay AID1347071 (National Center for Advancing Translational Sciences (NCATS), 2019).
Among all 410,000 compounds or so, about 260 (0.063%) were called active. Inconclusive means that the source gave no clear call. Such entries were picked first, then a sample of the others. Calls follow the shape of the dose curve; as a rule, active = well fitted activation curve with a large enough effect; inconclusive = small, poorly fitted or top-dose-only effect; inactive = no such curve, though single readings can be large or run the other way. Potencies of inconclusive entries are left out as doubtful fits.

Assay: qHTS for compounds that reverse cellular toxicity of Amyloid beta (A-beta) peptide in yeast: Primary Screen; also: nearly all actives have a fitted effect of over 55% in size
Conditions: yeast expressing A-beta42, growth rescue, OD600, 48 h; growth rescue: at 46.1 µM (top of the series), 0% DMSO, 100% iron-clioquinol control
Summary of the method: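 Yeast A-beta toxicity model in growth medium with pinned compounds, 48 h at 30 C; growth read as absorbance at 600 nm. Normalized to FeCl3/clioquinol equimolar mix (positive) and DMSO (negative).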
Potency is read from the fitted curve at half-maximal effect; tags tell the direction and shape of the fitted curve.

SMILES	Potency	growth rescue
COc1ccc(CNC(=S)N/N=C(\C)c2ccc(OC)cc2)cc1	inconclusive [activator, partial curve, poor fit]	–
NC(=O)c1ccc(Oc2ccc(-c3nnco3)cc2)c([N+](=O)[O-])c1	–	inactive: -18.6%
O=C(Nc1ccc(F)cc1)c1ccc(CSc2ccc(Cl)cc2)o1	inconclusive [activator, single point]	–
CN(/N=C/c1ccc(O)cc1O)c1ncc(C(F)(F)F)cc1Cl	inconclusive [activator, partial curve, poor fit]	–
CCOc1ccc(CCNC(=O)CCSCc2cccc(Cl)c2)cc1OCC	–	inactive: 21.7%
Cc1cc(=O)n2[nH]c(NCc3ccccc3F)nc2n1	inconclusive [activator, single point]	–
COc1ccc(NC(=O)Nc2nnc(Cc3ccc(F)cc3)s2)cc1	–	inactive: -3.6%
CC(=NNC(N)=S)c1ccc2cc3c(cc2c1)OCO3	inconclusive [activator, full curve, poor fit]	–
COCCNC(=O)CCCn1c(=O)c2ccccc2n(Cc2cccc([N+](=O)[O-])c2)c1=O	inconclusive [activator, single point]	–
FC(F)(F)c1cc(CCN2C(=S)NC[C@@H]2c2ccccc2)cc(C(F)(F)F)c1	inconclusive [activator, single point]	–
Cc1ccc(NC(=O)c2cc(N3C(=O)C4CCCCC4C3=O)ccc2N2CCOCC2)cc1 (configuration not stated)	inconclusive [activator, partial curve]	–
CSc1ncc(C(=O)Nc2cccc(Cl)c2)c(C)n1	inconclusive [activator, partial curve]	–
O=C(O)CSCc1ccc(Cl)cc1	inconclusive [activator, partial curve, poor fit]	–
CCCCNC(=O)C1(C)CCCCN1C(=O)c1cccc(OC(F)(F)F)c1 (configuration not stated)	–	inactive: 0%
Cc1cc(C)c(C#N)c(Sc2ccccc2N)n1	inconclusive [activator, partial curve]	–
O=C(NCCOc1ccccc1Cl)c1ncn[nH]1	–	inactive: 15.2%
CC1Cc2ccccc2N1C(=O)CO/N=C/c1ccccc1OC(F)F (configuration not stated)	–	inconclusive: 13.6% [activator]
N#C/C(=C\c1ccc([N+](=O)[O-])o1)C(=O)Nc1ccc(F)cc1	–	inactive: -84.7%
CCOc1ccc(CSCCNC(=S)Nc2ccccc2)cc1	inconclusive [activator, partial curve, poor fit]	–
O=C1C(Cl)=C(NC2CCCCC2)C(=O)N1Cc1ccccc1	inconclusive [activator, single point]	–
CN1N=C(C(=O)N2CCCC(C(=O)c3cccc(C(F)(F)F)c3)C2)CCC1=O (configuration not stated)	inconclusive [activator, single point]	–
O=C(c1cccc(S(=O)(=O)N2CCOCC2)c1)N(Cc1ccco1)Cc1cccs1	–	inactive: 0.493%
COc1ccc(S(=O)(=O)Nc2cc(C)ccn2)cc1	–	inactive: -1.89%

SMILES	Potency	growth rescue
O=C(c1ccc(F)cc1)C1CCN(C(=S)Nc2ccc(F)cc2)CC1	inconclusive [activator, single point]	–
CCOc1ccc(/C=C/c2nc(C#N)c(N3CCCCCC3)o2)cc1	inconclusive [activator, partial curve]	–
CCOc1ccc(NC(=S)NS(=O)(=O)c2cc(Br)ccc2OCC)cc1	inconclusive [activator, single point]	–
CC(C)C(C(=O)Nc1ccccc1)N1C(=O)c2ccccc2C1=O (configuration not stated)	–	inactive: 6.83%
COc1ccc(COC(=O)NNC(=O)c2ccc(OC)cc2)cc1	inconclusive [activator, single point]	–
FC(F)(F)c1cccc(NC(=S)NCc2ccccc2)c1	inconclusive [activator, partial curve, poor fit]	–
Cc1cc(OC(=O)Cc2cccc3ccccc23)c([N+](=O)[O-])c(=O)[nH]1	inconclusive [activator, single point]	–
COc1cc2[nH]c(C(=O)N(C)Cc3ccccc3)cc2c(OC)c1OC	inconclusive [activator, partial curve]	–
CCCNC(=O)OCCC12CC3CC(CC(C3)C1)C2	inconclusive [activator, partial curve, poor fit]	–
CCCCc1ccc(NC(=O)CN(C)CC(=O)Nc2ccccc2Cl)cc1	inconclusive [activator, single point]	–
O=C(N/N=C/c1c[nH]c2ccccc12)c1cc(Cl)ccc1O	inconclusive [activator, single point]	–
COC(=O)c1c(-c2cccs2)csc1NC(=O)COc1ccccc1	–	inactive: -10.1%
O=C(C1CCCO1)N1CCN(S(=O)(=O)c2ccccc2)CC1 (configuration not stated)	–	inconclusive: -95% [activator]
Clc1ccc(OCc2nc(-c3ccccn3)n[nH]2)cc1	inconclusive [activator, single point]	–
CCCCNC(=O)c1nc(-c2ccncc2)oc1-c1ccc(OC(F)(F)F)cc1	inconclusive [activator, single point]	–
O=C(/C(=C/c1ccccc1Cl)c1ccccc1)N1CCOCC1	inconclusive [activator, partial curve, poor fit]	–
CC(C)N1CC=C2C(C#N)=C(N)C(C#N)(C#N)C(c3ccccc3)C2C1 (configuration not stated)	–	inactive: -14.2%
COc1ccc([C@@H]2[C@@H]3C(=O)N(C(C)(C)C)C(=O)[C@@H]3[C@]3(Cc4ccccc4)C(=O)N(c4ccc(Br)cc4)C(=O)N23)cc1	–	inactive: -5.82%
CCOc1cc(S(=O)(=O)NCc2ccccc2)ccc1F	inconclusive [activator, single point]	–
Cc1ccc(SCC(=O)N(C)CC(=O)Nc2cccc(F)c2)cc1	inconclusive [activator, partial curve, poor fit]	–
CCOc1cc(C2CC(=O)Nc3c2c(=O)nc(SCc2cccc(Cl)c2)n3C)ccc1O (configuration not stated)	–	inactive: 1.74%
Cc1cccc(Cl)c1NC(=O)N1CCCN(c2nc3ccc(Cl)cc3s2)CC1	inconclusive [activator, single point]	–
CC(=O)Nc1ccc(NC(=O)c2nc(SCc3ccccc3C)ncc2Cl)cc1	inconclusive [activator, partial curve, poor fit]	–

SMILES	Potency	growth rescue
COC(=O)c1cccc(NC(=S)Nc2cccc(Cl)c2C)c1	inconclusive [activator, partial curve, poor fit]	–
Cn1c(/C(C#N)=C/c2ccncc2)nc2ccccc21	inconclusive [activator, partial curve, poor fit]	–
COc1cc([C@@H]2c3cc4c(cc3[C@@H](O)[C@H]3COC(=O)[C@H]23)OCO4)cc(OC)c1O[Si](C)(C)C(C)(C)C	inconclusive [activator, single point]	–
CC(C)(C)Cc1nnc(NC(=O)c2cc(-c3ccccc3)nc3ccccc23)s1	inconclusive [activator, partial curve, poor fit]	–
N#Cc1ccccc1NC(=O)c1cccc(COc2ccc(Cl)cc2Cl)c1	inconclusive [activator, partial curve, poor fit]	–
Fc1ccccc1CNC(=S)NC1CCCCC1	inconclusive [activator, partial curve, poor fit]	–
CCNC(=S)N1CCC(Cc2ccccc2)CC1	inconclusive [activator, single point]	–
COc1ccc(CC(=O)Nc2ccc(C(=O)Nc3ccccc3C(=O)O)cc2)cc1OC	–	inactive: -16.3%
Cc1cccc(N2CCN(C(=O)/C=C/c3cccs3)CC2C)c1 (configuration not stated)	inconclusive [activator, single point]	–
COc1ccccc1NC(=S)N1CCC(C(=O)c2ccc(F)cc2)CC1	inconclusive [activator, single point]	–
CCOC(=O)N1CCN(S(=O)(=O)N2CCCC(C(=O)NCc3ccccc3OC)C2)CC1 (configuration not stated)	inconclusive [activator, full curve]	–
COC(=O)c1c(NC(=O)c2c(OC)cccc2OC)sc2c1C(C(=O)OC)CC2 (configuration not stated)	–	inactive: 0.606%
CC1=NN(C(=O)c2ccc(Cn3ccc([N+](=O)[O-])n3)cc2)C(O)(C(F)(F)F)C1 (configuration not stated)	inconclusive [activator, single point]	–
Cc1ccc(CN2CC(C(=O)N3CCN(S(=O)(=O)c4cccc(F)c4)CC3)CC2=O)cc1 (configuration not stated)	–	inactive: 4.68%
CO/C(N)=C(\C#N)N=Cc1ccccc1Cl	inconclusive [activator, single point]	–
CSc1cccc(NC(=S)Nc2ccc(F)cc2)c1	inconclusive [activator, single point]	–
O=C(CN1CCN(S(=O)(=O)c2ccccc2)CC1)Nc1ccc(Cl)c(Cl)c1	inconclusive [activator, single point]	–
O=C(c1cccc(S(=O)(=O)N2CCCC2)c1)N1CCCc2ccccc21	–	inactive: 9.46%
CC(C)Oc1ccc(C(=O)N2CC(=O)Nc3ccc(F)cc3C2c2ccc(F)cc2)cc1 (configuration not stated)	–	inactive: 7.23%
CC(NC(=O)c1ccc2nc(Cc3ccccc3)oc2c1)c1ccccc1 (configuration not stated)	inconclusive [activator, partial curve, poor fit]	–
Cc1c(Cl)cccc1NC(=O)C(=O)NCC(c1cccnc1)N1CCN(c2ccccc2)CC1 (configuration not stated)	–	inactive: -0.773%
